These are yes or no findings as the source states them, for the method shown. Binding seen in cells or lysates may run through a third protein. Some results given as binding are weak or reduced against the parent protein; the word gives no strength. For some assays here: Tags and fused reporters may be left off the sequences shown.
Legend:
[1] = molecular target: T1, cGMP-dependent protein kinase II (mouse) (UniProt Q61410); assay: co-IP; lysates of HEK293 cells coexpressing HCN2 and cGKII; IP with anti-cGKII antibody and protein A-Sepharose overnight at 4°C; lysis buffer with 1% Triton X-100, 150 mM NaCl; wash with 300 mM KCl; immunoblot for HCN2
T1 sequence: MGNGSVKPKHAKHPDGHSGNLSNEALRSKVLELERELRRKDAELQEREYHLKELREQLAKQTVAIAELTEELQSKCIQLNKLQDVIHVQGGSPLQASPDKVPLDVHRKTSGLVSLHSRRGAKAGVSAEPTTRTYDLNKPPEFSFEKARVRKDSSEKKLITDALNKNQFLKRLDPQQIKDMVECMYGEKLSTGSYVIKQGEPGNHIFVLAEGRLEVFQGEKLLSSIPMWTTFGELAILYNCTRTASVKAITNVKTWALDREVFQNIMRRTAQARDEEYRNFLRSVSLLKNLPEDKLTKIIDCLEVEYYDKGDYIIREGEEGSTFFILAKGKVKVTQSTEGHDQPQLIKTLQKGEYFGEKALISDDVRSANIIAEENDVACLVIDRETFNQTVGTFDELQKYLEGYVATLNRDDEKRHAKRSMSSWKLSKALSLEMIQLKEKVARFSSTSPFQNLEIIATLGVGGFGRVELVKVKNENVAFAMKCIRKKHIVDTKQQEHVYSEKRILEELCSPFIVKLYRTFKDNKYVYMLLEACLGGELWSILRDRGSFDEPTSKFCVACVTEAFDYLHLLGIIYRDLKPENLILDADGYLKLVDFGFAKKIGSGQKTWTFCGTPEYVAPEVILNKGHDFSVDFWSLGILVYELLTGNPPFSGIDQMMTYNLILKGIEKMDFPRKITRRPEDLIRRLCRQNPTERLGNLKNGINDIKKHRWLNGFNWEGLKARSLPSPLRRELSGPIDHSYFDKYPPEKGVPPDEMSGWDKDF

[2] = molecular target: T2, cGMP-dependent protein kinase II, endogenous in mouse hypothalamus (mouse (endogenous in hypothalamus)) (UniProt Q61410); assay: co-IP; protein extracts of mouse hypothalamus (WT and HCN2-KO); IP with anti-cGKII antibody and protein A-Sepharose overnight at 4°C; immunoblot for HCN2
T2 sequence: T1 sequence

[3] = molecular target: T3, C-terminally GFP-tagged cGKII (mouse) (UniProt Q61410); assay: co-IP; GFP-Trap-A (Chromotek): lysates of HEK293 cells coexpressing cGKII-GFP and myc-tagged portions of the HCN2 C-terminus; immunoblot with anti-myc
T3 sequence: T1 sequence

B1: HCN2 channel (hyperpolarization-activated cyclic nucleotide-gated channel 2), full length (protein, UniProt O88703 1-863)
chain: MDARGGGGRPGDSPGTTPAPGPPPPPPPPAPPQPQPPPAPPPNPTTPSHPESADEPGPRARLCSRDSACTPGAAKGGANGECGRGEPQCSPEGPARGPKVSFSCRGAASGPSAAEEAGSEEAGPAGEPRGSQASFLQRQFGALLQPGVNKFSLRMFGSQKAVEREQERVKSAGAWIIHPYSDFRFYWDFTMLLFMVGNLIIIPVGITFFKDETTAPWIVFNVVSDTFFLMDLVLNFRTGIVIEDNTEIILDPEKIKKKYLRTWFVVDFVSSIPVDYIFLIVEKGIDSEVYKTARALRIVRFTKILSLLRLLRLSRLIRYIHQWEEIFHMTYDLASAVMRICNLISMMLLLCHWDGCLQFLVPMLQDFPSDCWVSINNMVNHSWSELYSFALFKAMSHMLCIGYGRQAPESMTDIWLTMLSMIVGATCYAMFIGHATALIQSLDSSRRQYQEKYKQVEQYMSFHKLPADFRQKIHDYYEHRYQGKMFDEDSILGELNGPLREEIVNFNCRKLVASMPLFANADPNFVTAMLTKLKFEVFQPGDYIIREGTIGKKMYFIQHGVVSVLTKGNKEMKLSDGSYFGEICLLTRGRRTASVRADTYCRLYSLSVDNFNEVLEEYPMMRRAFETVAIDRLDRIGKKNSILLHKVQHDLSSGVFNNQENAIIQEIVKYDREMVQQAELGQRVGLFPPPPPPQVTSAIATLQQAVAMSFCPQVARPLVGPLALGSPRLVRRAPPGPLPPAASPGPPAASPPAAPSSPRAPRTSPYGVPGSPATRVGPALPARRLSRASRPLSASQPSLPHGVPAPSPAASARPASSSTPRLGPAPTARTAAPSPDRRDSASPGAASGLDPLDSARSRLSSNL
**Q.** How did the binding [1] turn out when B1 was run?
**A.** binds

B2: HCN2, endogenous in mouse hypothalamus (protein, UniProt O88703 1-863)
chain: B1 chain
**Q.** For B2, which binding [2] is on record?
**A.** binds

B3: myc-tagged combined C-linker/cyclic-nucleotide binding domain of HCN2 (aa 443-647) (domain or fragment, UniProt O88703 443-647)
chain: DSSRRQYQEKYKQVEQYMSFHKLPADFRQKIHDYYEHRYQGKMFDEDSILGELNGPLREEIVNFNCRKLVASMPLFANADPNFVTAMLTKLKFEVFQPGDYIIREGTIGKKMYFIQHGVVSVLTKGNKEMKLSDGSYFGEICLLTRGRRTASVRADTYCRLYSLSVDNFNEVLEEYPMMRRAFETVAIDRLDRIGKKNSILLHKV
**Q.** With B3 as the binder, how does the binding [3] read?
**A.** binds

B4: myc-tagged C-linker of HCN2 (aa 443-525) (domain or fragment, UniProt O88703 443-525)
chain: DSSRRQYQEKYKQVEQYMSFHKLPADFRQKIHDYYEHRYQGKMFDEDSILGELNGPLREEIVNFNCRKLVASMPLFANADPNF
**Q.** How did the binding [3] turn out when B4 was run?
**A.** no binding

B5: myc-tagged distal C-terminus of the HCN2 channel (aa 647-863) (domain or fragment, UniProt O88703 647-863)
chain: VQHDLSSGVFNNQENAIIQEIVKYDREMVQQAELGQRVGLFPPPPPPQVTSAIATLQQAVAMSFCPQVARPLVGPLALGSPRLVRRAPPGPLPPAASPGPPAASPPAAPSSPRAPRTSPYGVPGSPATRVGPALPARRLSRASRPLSASQPSLPHGVPAPSPAASARPASSSTPRLGPAPTARTAAPSPDRRDSASPGAASGLDPLDSARSRLSSNL
**Q.** B5 was tested. Which binding [3] did it give?
**A.** no binding
